From the GPR68 mutational scans of Howard et al. (2025)

B1: GPR68, Q15743 (parent)
chain: MGNITADNSSMSCTIDHTIHQTLAPVVYVTVLVVGFPANCLSLYFGYLQIKARNELGVYLCNLTVADLFYICSLPFWLQYVLQHDNWSHGDLSCQVCGILLYENIYISVGFLCCISVDRYLAVAHPFRFHQFRTLKAAVGVSVVIWAKELLTSIYFLMHEEVIEDENQHRVCFEHYPIQAWQRAINYYRFLVGFLFPICLLLASYQGILRAVRRSHGTQKSRKDQIQRLVLSTVVIFLACFLPYHVLLLVRSVWEASCDFAKGVFNAYHFSLLLTSFNCVADPVLYCFVSETTHRDLARLRGACLAFLTCSRTGRAREAYPLGAPEASGKSGAQGEEPELLTKLHPAFQTPNSPGSGGFPTGRLA

Tests used:
[1] = variants of: B1; test: cAMP reporter score (Enrich2 score, wild type = 0); higher = more signal; HEK293T, FACS bins
[2] = variants of: B1; test: surface expression score (Enrich2 score, wild type = 0); higher = more signal; HEK293T, FACS bins

Variant | cAMP reporter score ([1]; pH 5.5) | cAMP reporter score ([1]; pH 6) | cAMP reporter score ([1]; pH 6, modulator: ogerin) | cAMP reporter score ([1]; pH 6.5, modulator: ogerin) | surface expression score [2]
MGNITADNSSMSCTIDHTIHQTLAPVVYVTVLVVGFPANCLSPYFGYLQIKARNELGVYLCNLTVADLFYICSLPFWLQYVLQHDNWSHGDLSCQVCGILLYENIYISVGFLCCISVDRYLAVAHPFRFHQFRTLKAAVGVSVVIWAKELLTSIYFLMHEEVIEDENQHRVCFEHYPIQAWQRAINYYRFLVGFLFPICLLLASYQGILRAVRRSHGTQKSRKDQIQRLVLSTVVIFLACFLPYHVLLLVRSVWEASCDFAKGVFNAYHFSLLLTSFNCVADPVLYCFVSETTHRDLARLRGACLAFLTCSRTGRAREAYPLGAPEASGKSGAQGEEPELLTKLHPAFQTPNSPGSGGFPTGRLA [L43P] | -1.49 | -0.486 | -0.313 | -0.978 | -2.38
MGNITADNSSMSCTIDHTIHQTLAPVVYVTVLVVGFPANCLSQYFGYLQIKARNELGVYLCNLTVADLFYICSLPFWLQYVLQHDNWSHGDLSCQVCGILLYENIYISVGFLCCISVDRYLAVAHPFRFHQFRTLKAAVGVSVVIWAKELLTSIYFLMHEEVIEDENQHRVCFEHYPIQAWQRAINYYRFLVGFLFPICLLLASYQGILRAVRRSHGTQKSRKDQIQRLVLSTVVIFLACFLPYHVLLLVRSVWEASCDFAKGVFNAYHFSLLLTSFNCVADPVLYCFVSETTHRDLARLRGACLAFLTCSRTGRAREAYPLGAPEASGKSGAQGEEPELLTKLHPAFQTPNSPGSGGFPTGRLA [L43Q] | -1.21 | -0.821 |  | -0.57 | -3.68
MGNITADNSSMSCTIDHTIHQTLAPVVYVTVLVVGFPANCLSRYFGYLQIKARNELGVYLCNLTVADLFYICSLPFWLQYVLQHDNWSHGDLSCQVCGILLYENIYISVGFLCCISVDRYLAVAHPFRFHQFRTLKAAVGVSVVIWAKELLTSIYFLMHEEVIEDENQHRVCFEHYPIQAWQRAINYYRFLVGFLFPICLLLASYQGILRAVRRSHGTQKSRKDQIQRLVLSTVVIFLACFLPYHVLLLVRSVWEASCDFAKGVFNAYHFSLLLTSFNCVADPVLYCFVSETTHRDLARLRGACLAFLTCSRTGRAREAYPLGAPEASGKSGAQGEEPELLTKLHPAFQTPNSPGSGGFPTGRLA [L43R] | -1.55 | -0.527 | -1.41 | -0.676 | -3.02
MGNITADNSSMSCTIDHTIHQTLAPVVYVTVLVVGFPANCLSSYFGYLQIKARNELGVYLCNLTVADLFYICSLPFWLQYVLQHDNWSHGDLSCQVCGILLYENIYISVGFLCCISVDRYLAVAHPFRFHQFRTLKAAVGVSVVIWAKELLTSIYFLMHEEVIEDENQHRVCFEHYPIQAWQRAINYYRFLVGFLFPICLLLASYQGILRAVRRSHGTQKSRKDQIQRLVLSTVVIFLACFLPYHVLLLVRSVWEASCDFAKGVFNAYHFSLLLTSFNCVADPVLYCFVSETTHRDLARLRGACLAFLTCSRTGRAREAYPLGAPEASGKSGAQGEEPELLTKLHPAFQTPNSPGSGGFPTGRLA [L43S] | -0.843 | -0.065 | -1.41 | -0.874 | -2.22

The least precise scores are not listed. The source holds two more conditions with little spread; they are left out. Names with del lack the residues named; names with ins carry added residues between the positions named. For some of these results: How much ogerin was present is not stated here.
